Each structure is given as a SMILES string. Out of some 1,200 compounds screened, about 30 (2%) were called active. Not shown: some 23% with an inconclusive outcome. Calls follow the shape of the dose curve; as a rule, active = well fitted inhibition curve with a large enough effect; inconclusive = small, poorly fitted or top-dose-only effect; inactive = flat fitted curve, though single readings scatter. Some of the results follow.
% is scaled to controls: 0 for no effect and ±100 for the full control effect; potency is read from the fitted curve at half-maximal effect.

This test has as its target Single-stranded DNA cytosine deaminase (Homo sapiens) (UniProt Q9GZX7). The test can be described thus: Confirmatory qHTS assay for inhibitors of Activation Induced Cytidine Deaminase (AID): AID signals. The settings on record: recombinant AID, FRET deamination/UDG coupled fluorescence, 4 h; series mostly up to 115 µM; activity, negative = inhibition: at the top concentration. In outline: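 Read 1 (AID) was measured at 540 ex/590 em after a 30 min NaOH step. The reaction was AID (1 uM, 4/3x stock) with UDG, compound at final 7.32 nM - 114 uM for 10 min, then DJC20/DJC23 substrate for 4 hr at room temperature. A UDG read at 560/665 serves as counterscreen.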
Chain of UniProt Q9GZX7 (Q9GZX7 whole entry, looked up): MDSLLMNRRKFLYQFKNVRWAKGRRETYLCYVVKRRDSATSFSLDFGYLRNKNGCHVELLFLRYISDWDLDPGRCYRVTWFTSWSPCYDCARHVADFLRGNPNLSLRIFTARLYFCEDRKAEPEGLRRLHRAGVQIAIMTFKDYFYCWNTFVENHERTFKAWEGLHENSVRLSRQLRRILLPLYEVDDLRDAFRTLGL
For the compound `COc1cc(NC(=O)CC(c2ccc(C)cc2)N2Cc3ccccc3C2=O)cc(OC)c1` (stereo not given), the “activity, negative = inhibition” value was inactive: -5.69%. Same read-out and setting: the same measure for `Cc1ccc(-c2nc3nc(C)cc(C)n3c2Nc2ccc3c(c2)OCCO3)cc1`: inactive: -18.3%; for `Cc1cccc(CNC(=O)c2oc3c(c2C)-c2nn(Cc4cccc(Cl)c4)cc2CC3)c1`: inactive: 13.1%. Consider `CCOC(=O)N1CCc2c(sc(NCc3ccc(N(C)C)cc3)c2C(=O)Nc2ccc(OC)cc2)C1`, for which the “activity, negative = inhibition” value is inactive: 13.4%. On the same count and under the same terms, the same measure for `CCOC(=O)c1c(Nc2cc(C)cc(C)c2)nnc(-c2ccccc2)c1-c1ccccc1`: inactive: 6.32%; for `CCOc1ccccc1C(=O)N(Cc1cccs1)c1ccc(Cl)cc1`: inactive: -17%; for `COc1ccc(C)cc1NC(=O)COCc1cc(-c2ccc(F)cc2)on1`: inactive: -0.715%. On the same count and under the same terms, the same measure for `CC(C)c1ccc(NC(=O)CSC2=Nc3ccccc3C3=NC(CCC(=O)NCc4ccco4)C(=O)N23)cc1` (stereo not given): inactive: 15.2%. With `Cc1ccc(C)c(Oc2nc3c(c(=O)n(C)c(=O)n3C)n2Cc2ccccc2)c1`, the “activity, negative = inhibition” value was inactive: -22.8%.

For `COc1ccccc1C(=O)Oc1c(Sc2ccccc2)c(C)nn1-c1ccccc1`, the “activity, negative = inhibition” value was inactive: 3.97%. On to `CC(C)CCn1c(Oc2ccccc2F)nc2c1c(=O)n(C)c(=O)n2C`, for which the “activity, negative = inhibition” value was inactive: -11.2%. In the case of `Cc1ccc(Cl)cc1N1CCN(C(=O)c2ccc(CS(=O)c3ccccc3)o2)CC1` (stereo not given), the “activity, negative = inhibition” value is inactive: -17.9%. In the case of `CC(C)(C)c1ccc(S(=O)(=O)c2cnc(SCC(=O)Nc3ccc(F)c(Cl)c3)[nH]c2=O)cc1`, the Potency is active: 35.5 µM. Turning to `CN(C(=O)c1oc(=O)c2ccccc2c1-c1ccccc1)c1cccc(Cl)c1`, the “activity, negative = inhibition” value was inactive: -18%. On to `CCN1CCN(CCCNC(=O)c2ccc3c(c2)sc2nc(-c4ccc(C)cc4)cn23)CC1`, for which the “activity, negative = inhibition” value is inactive: -13.8%. The same measure, in the same setting: the same measure for `Cc1cccc(-n2ncc(C(=O)NCc3ccco3)c2C2CCN(C(=O)OC(C)(C)C)CC2)c1`: inactive: -2.91%.

Take `CCOc1ccc(NC(=O)Cn2c(=O)n(Cc3ccccc3)c(=O)c3c4c(sc32)CN(C(C)=O)CC4)cc1`: the “activity, negative = inhibition” value was inactive: -5.22%. `Cc1cccc(OCC(=O)N(Cc2cccc(Cl)c2)Cc2ccco2)c1C`: the “activity, negative = inhibition” value is inactive: -14.2%.

`Cc1ccc(C)c(N2CCN(C(=O)c3cc(S(=O)(=O)N4CCCCC4)cn3C)CC2)c1`: the “activity, negative = inhibition” value was inactive: -12%. Turning to `CCCC(=O)Oc1c(Sc2ccc(Cl)cc2)c(C)nn1-c1ccccc1`, the “activity, negative = inhibition” value is inactive: -4.16%.

On to `COc1ccc(N2CCN(C(=O)c3nn(C)c4c3CSc3ccccc3-4)CC2)cc1`, for which the “activity, negative = inhibition” value is inactive: -29.2%.

`Cc1ccc(C)c(NC(=O)Cn2c(=O)n(Cc3ccco3)c(=O)c3ccc(C(=O)NC4CCCC4)cc32)c1`: the “activity, negative = inhibition” value is inactive: 6.02%. Take `COC(=O)c1c(NC(=O)CCCOc2ccccc2)sc2c1CCC(C)C2` (stereo not given): the “activity, negative = inhibition” value was inactive: 11.1%. On to `CCCCCCSc1nc(N)c2c3c(sc2n1)CCCC3C` (stereo not given), for which the “activity, negative = inhibition” value was inactive: -9.76%. Take `CC(C)Oc1ccc(C(=O)NCCc2csc(-c3cccc(F)c3)n2)cc1`: the “activity, negative = inhibition” value is inactive: -17.9%. The same measure, in the same setting: next, `CCOc1ccc(Nc2c(S(=O)(=O)c3ccc(C)cc3)cnc3ccc(OC)cc23)cc1`: inactive: -15.4%. On the same count and under the same terms, the same measure for `O=c1cc2nc(-c3cccs3)nc(SCCOc3ccc(Cl)cc3)n2[nH]1`: inactive: -10.7%; for `COc1cccc(C(=O)Nc2nc3nc(C)c(Cc4ccccc4)c(=O)n3[nH]2)c1`: inactive: -1.41%; for `Cc1ccc2oc(C(=O)NCC(c3ccc(Cl)cc3)N3CCOCC3)c(C)c2c1` (stereo not given): inactive: -8.51%. The same measure, in the same setting: next, `COc1ccccc1CNC(=O)CSc1nc2nc(C)c(Cc3ccccc3C)c(C)n2n1`: inactive: 0.0876%.

For the compound `COc1ccc(CCNC(=O)c2c[nH]n3c(=O)c(Cc4ccccc4Cl)c(C)nc23)cc1OC`, the “activity, negative = inhibition” value was inactive: -6.89%.

With `O=C(NCC1CCN(Cc2ccccc2Cl)CC1)c1cc2ccc3cccnc3c2[nH]1`, the “activity, negative = inhibition” value was inactive: -9.34%. Consider `CCc1ccc(NC(=O)c2ccc3c(O)c(S(=O)(=O)c4ccccc4)c(=O)[nH]c3c2)cc1`, for which the “activity, negative = inhibition” value was inactive: -17.9%.

Take `N=c1n(CCN2CCCCC2)c2ccccc2n1CC(O)COc1ccccc1` (stereo not given): the “activity, negative = inhibition” value is inactive: -0.329%. In the case of `Cc1ccccc1Nc1c(-c2ccc(N3CCOCC3)cc2)nc2cccc(C)n12`, the “activity, negative = inhibition” value was inactive: -6.47%. Regarding `COc1ccc(OC)c(-c2noc(N3CCN(c4cccc(C(F)(F)F)c4)CC3)n2)c1`, the “activity, negative = inhibition” value was inactive: -14.8%. With `CCC(=O)Oc1c(Sc2ccc(C)cc2)c(C)nn1-c1ccccc1`, the “activity, negative = inhibition” value was inactive: 4.43%.

Turning to `CCOc1ccccc1C(=O)N1CCc2cc(OC)c(OC)cc2C1COc1ccc(OC)cc1` (stereo not given), the “activity, negative = inhibition” value is inactive: -20.7%.

Regarding `COc1ccc(CN(Cc2ccco2)C(=O)COc2ccccc2Cl)cc1`, the “activity, negative = inhibition” value is inactive: -14.1%. For `CC1Cc2ccccc2N1S(=O)(=O)c1nnc(NC(=O)c2cccc(F)c2)s1` (stereo not given), the “activity, negative = inhibition” value is inactive: -1.86%. With `Cn1nc(C(=O)NCc2ccccc2Cl)c2c1-c1ccccc1S(=O)(=O)C2`, the “activity, negative = inhibition” value was inactive: -14.1%.

In the case of `COc1ccc(C(C)=O)cc1CSc1nc(NCCc2ccccc2)c2ccccc2n1`, the “activity, negative = inhibition” value was inactive: -11%. Consider `COc1ccc(-c2nn(-c3ccccc3)cc2C2NC(=O)NC(C)=C2C(=O)OC(C)C)cc1Cl` (stereo not given), for which the “activity, negative = inhibition” value is inactive: -0.932%. For the compound `Cc1ccc(Cl)cc1N1CCN(CCCNC(=O)c2ccc3nc(N4CCCCC4)sc3c2)CC1`, the “activity, negative = inhibition” value is inactive: -4.77%. For `CCn1cc2nc(SCC(=O)Nc3ccccc3C(F)(F)F)n(Cc3ccc(C)cc3)c(=O)c2n1`, the “activity, negative = inhibition” value was inactive: -22.9%. `Cc1ccc(C(=O)c2cn(Cc3ccccc3)c3ccccc3c2=O)cc1`: the “activity, negative = inhibition” value is inactive: -15.5%. `CCc1cccc(C)c1Nc1c(-c2ccc(N(C)C)cc2)nc2cnccn12`: the “activity, negative = inhibition” value was inactive: -15.9%. As to `Cc1ccc(NC(=O)c2ccc(N(Cc3ccccc3)S(C)(=O)=O)cc2)cc1`, the “activity, negative = inhibition” value was inactive: 1.51%. For `COC(=O)c1ccc(NC(=O)NC(C)c2c(-n3cccc3)sc(C)c2C)cc1` (stereo not given), the “activity, negative = inhibition” value is inactive: 1.93%. As for `Cc1cccc(N(CC(=O)N(C)Cc2ccccc2)S(=O)(=O)c2ccccc2)c1C`, the “activity, negative = inhibition” value was inactive: -12.3%. Take `CC(C)(C)c1ccc(C(=O)N2CCC(c3nc4ccccc4o3)CC2)cc1`: the “activity, negative = inhibition” value is inactive: -14.5%. Take `O=C(CC1N=C2c3ccccc3N=C(SCc3ccccc3F)N2C1=O)NCc1ccc2c(c1)OCO2` (stereo not given): the “activity, negative = inhibition” value was inactive: -25.5%. Still for that read-out and setting: next, `O=C(NCCc1nc2ccccc2n1CCCOc1ccc(Cl)cc1)C1CCCCC1`: inactive: -7.72%; `Fc1ccc(Cn2c(-c3cccc(Br)c3)nc3ccccc32)cc1`: inactive: -17.1%. As to `CCc1ccccc1NC(=O)CSc1nc(-c2ccccc2OC)nc2c1Cc1c(CO)cnc(C)c1O2`, the “activity, negative = inhibition” value is inactive: -27.7%. As for `Cc1nc2nc(SCC(=O)NCCc3ccc(Cl)cc3)nn2c(C)c1Cc1ccccc1`, the “activity, negative = inhibition” value was inactive: -24.9%. As to `Cc1ccc(N2C(=O)c3[nH]nc(-c4ccc(Cl)cc4)c3C2c2ccc(F)cc2)cc1` (stereo not given), the “activity, negative = inhibition” value was inactive: -4.47%. For `Cc1c(C)n(C)c2ccc(C(=O)N3CCN(c4ccccc4)CC3)cc12`, the “activity, negative = inhibition” value was inactive: 0.494%. Take `COc1ccccc1C(=O)NCCn1cc(SCc2ccccc2Cl)c2ccccc21`: the “activity, negative = inhibition” value was inactive: -0.695%. Regarding `C=Cc1ccc(CN2C(=O)N(c3cccc(Cl)c3)S(=O)(=O)c3ccccc32)cc1`, the “activity, negative = inhibition” value was inactive: 1.5%.

These data come from PubChem BioAssay AID1347434 (National Center for Advancing Translational Sciences (NCATS), 2020).
